Among all 52,000 compounds or so, about 4,300 (8.3%) were called active. Rule as the data show it: active = survival mostly below about 52% (no sharp cut-off); inactive = mostly above about 56%. The list shows a part of the results.

The test deals with DeltatarO mutant. The test can be described thus: S. aureus survival, RN4220 and DeltatarO strains – OD600, teichoic acid synthesis inhibitors, primary screen (AID 463173). To be noted: S. aureus RN4220 wild type/DeltatarO growth, OD600, 18 h, active compounds read low, screened at 18.75 µg/mL (by protocol).
On to `COc1cccc(CNC(=O)c2ccc3c(c2)sc2nc(-c4cccc(OC)c4)cn23)c1`, for which the survival was inactive: 65%. In the case of `CCc1nc2nc(C)cc(Nc3cc(C)ccc3C)n2n1`, the survival was inactive: 88%. For `CCOC(=O)c1ccc(NC(=O)Cn2nc(C)c3nn(-c4ccc(Cl)cc4)c(C)c3c2=O)cc1`, the survival is inactive: 102%. For the compound `O=C1c2ccccc2NC(c2ccncc2)N1c1ccccn1` (stereo not given), the survival is inactive: 101%.

In the case of `CCOC(=O)c1c(NC(=O)C(C)Sc2cn(CCNC(=O)c3ccc(OCC)cc3)c3ccccc23)sc2c1CCC2` (stereo not given), the survival is inactive: 92%. As to `Cc1cccc(N2CCN(C(=O)c3cnn(-c4ccccc4)c3C3CCN(C(=O)OC(C)(C)C)CC3)CC2)c1C`, the survival was inactive: 87%. Turning to `COc1ccc(CNC(=O)C(=O)NCC(c2cccnc2)N2CCN(c3ccccc3)CC2)cc1` (stereo not given), the survival was inactive: 47%. In the case of `Cc1cccc(N(C)S(=O)(=O)c2ccc3c(c2)NC(=O)CC(=O)N3)c1`, the survival was inactive: 86%. Turning to `Cc1cc(C)cc(-n2c(SCC(=O)Nc3ccc4c(c3)OCO4)nc3c([nH]c4ccccc43)c2=O)c1`, the survival was inactive: 81%. In the case of `COc1cccc(Cn2c(=O)n(Cc3ccccc3)c(=O)c3c2c2cc(OC)ccc2n3C)c1`, the survival is inactive: 64%.

In the case of `CCCN1CCCc2cc(CN(CCCN3CCOCC3)C(=O)Nc3ccc(Cl)c(Cl)c3)ccc21`, the survival was inactive: 94%. For `Cn1c(O)c(N=NC(=S)Nc2ccccc2)c2ccccc21`, the survival was inactive: 63%. `COc1ccc(C2C3=C(CCCC3=O)NC3=C2C(=O)c2ccccc23)c(OC)c1OC` (stereo not given): the survival is inactive: 96%. The figure for `COc1ccc2sc(N(Cc3cccnc3)C(=O)CCc3ccccc3)nc2c1` is inactive: 109%; for `O=C(COC(=O)c1ccccc1)Nc1ccc2c(c1)OCO2` it is inactive: 97%.

For the compound `Cc1cc2[nH]c(=O)c(=O)[nH]c2cc1S(=O)(=O)N1CCN(c2ccccc2F)CC1`, the survival was inactive: 78%. Regarding `CC1=C(c2ccc(Cl)cc2)S(=O)(=O)N=C1N1CCN(c2cc(C)ccc2C)CC1`, the survival was inactive: 106%. On to `CC(=O)ONC(=Nc1ccccc1C)c1nonc1N`, for which the survival was inactive: 101%. For the compound `CCN(C(=O)C(NS(=O)(=O)c1ccc(Br)s1)c1ccccc1)c1ccc(C)c(C)c1` (stereo not given), the survival is inactive: 87%. As to `CC1(C)CC(=O)c2cc(-c3nc(-c4ccc(F)cc4)cs3)c(=O)[nH]c2C1`, the survival is inactive: 75%. In the case of `CC(C)c1ccc(-c2noc(C3CCCN(C(=O)Cc4cccs4)C3)n2)cc1` (stereo not given), the survival is active: 40%.

Take `Cc1cc(=O)n2nc(N)sc2n1`: the survival is inactive: 83%. As for `COC(=O)c1c(NC(=O)c2ccc(C(C)(C)C)cc2)sc2c1CCC(C)C2` (stereo not given), the survival was inactive: 85%. With `CCN(C(=O)Cn1nc(Cc2ccncc2)c2ccccc2c1=O)c1ccc(OC)cc1`, the survival was inactive: 80%. For `COc1cc(C2CC(=O)c3c([nH]c(C(=O)OC4CCCC4)c3C)C2)cc(OC)c1OC` (stereo not given), the survival was active: 51%. For `COCCn1nnnc1CN1CCC(Cc2ccccc2)CC1`, the survival is inactive: 97%.

With `Clc1ccc(-c2cn3cc(Cc4ccccc4)sc3n2)cc1`, the survival was inactive: 70%. As to `O=C(CSc1nc(=O)n(Cc2ccncc2)c2c1CCC2)Nc1cccc(F)c1`, the survival is inactive: 99%. Consider `CCOc1ccc(CCNC(=O)c2ccc(CSCc3ccccc3C)o2)cc1OCC`, for which the survival is inactive: 112%.

`CC(=O)Nc1ccc(S(=O)(=O)NCC2CCC(C(=O)NCCc3ccc(C)cc3)CC2)cc1` (stereo not given): the survival was inactive: 86%. With `COc1ccc(NC(=O)Cn2c(-c3ccc(F)cc3)cc(C(C)=O)c2C)c(OC)c1`, the survival was inactive: 120%. On to `O=S(=O)(c1ccccc1)n1nc(-c2ccc(Cl)cc2)nc1NCc1ccccc1`, for which the survival is inactive: 52%. `CC(=O)c1cccc(NC(=O)c2ccc3c(c2)N(Cc2ccc(C)cc2)CCS3)c1`: the survival is inactive: 79%.

For `N#C/C(=C\c1ccc(F)cc1)c1nc(-c2ccc(-c3ccccc3)cc2)cs1`, the survival is inactive: 69%. With `CCCC1=Nc2cc(C(=O)NC3CCCCC3)ccc2Sc2ccc(C)cc21`, the survival was inactive: 94%. For the compound `COc1cccc(CC(=O)Nc2c(C(=O)N3CCN(c4ccccc4F)CC3)oc3ccccc23)c1`, the survival was inactive: 92%. As for `CCC(=O)N1c2ccccc2CC1C(=O)NCCN1CCN(c2cc(Cl)ccc2C)CC1` (stereo not given), the figure is active: 52%; as for `COc1ccc(C)cc1NC(=O)Cn1cc(S(=O)(=O)N2CCC(C)CC2)c2ccccc2c1=O`, inactive: 75%.

For the compound `O=C(Cc1ccc(Cl)cc1)Nc1ccc2oc(-c3ccc(F)cc3)nc2c1`, the survival is inactive: 63%. Take `Cc1cc(C)cc(OCC(=O)N2CCC(c3nc4ccccc4o3)CC2)c1`: the survival is inactive: 79%.

`COC(=O)c1ccccc1NC(=O)C(Cc1ccccc1)N1Cc2ccccc2C1=O` (stereo not given): the survival is inactive: 54%.

Take `CCOc1ccc(NC(=O)c2c(NCc3cc(OC)c(OC)cc3OC)sc3c2CCCC3)cc1`: the survival was inactive: 74%.

As for `CCc1ccc(C2=NN(CCC(=O)NCCc3ccccc3)C(=O)CC2)cc1`, the survival is inactive: 94%. On to `CCc1c(C)c2cc3c(c(C)c2oc1=O)OCN(CCc1ccc(OC)c(OC)c1)C3`, for which the survival was inactive: 52%. Consider `Cc1ccc(-n2cnc3ccccc3c2=O)cc1Cl`, for which the survival is inactive: 101%.

On to `CCOC(=O)C1=C(C)NC(=O)C1CC(=O)O` (stereo not given), for which the survival is inactive: 84%.

In the case of `Cc1cc(C)c2c(n1)sc1c(Cl)ncnc12`, the survival was inactive: 110%.

With `COc1cc2c(cc1OC)C(CC(=O)O)N(C(=O)Nc1cc(OC)c(OC)c(OC)c1)CC2` (stereo not given), the survival was inactive: 91%. Take `Cc1ccc(C)c(N2CCN(CCCNC(=O)c3ccc4nc(N5CCC(C)CC5)sc4c3)CC2)c1`: the survival is active: 4%.

For `Cn1c(SCCN2CCCC2)nnc1-c1ccncc1`, the survival is inactive: 101%. As for `CCCn1c2ccccc2c2cnn(CC(=O)Nc3cc(OC)c(OC)c(OC)c3)c(=O)c21`, the survival is inactive: 119%. The figure for `CSc1nnc(COc2ccc(Cl)cc2)n1C` is inactive: 82%. Turning to `CCC1(C)CC(=O)c2c(ccc3oc(C(=O)Nc4ccc(C(C)=O)cc4)c(C)c23)O1` (stereo not given), the survival is inactive: 78%. `CCOc1ccc(C(=O)NCCc2csc(-c3cccc(C)c3)n2)cc1`: the survival was inactive: 94%.

As for `COc1ccc(C(=O)OCC(=O)c2ccc(C)cc2)cc1OC`, the survival was inactive: 96%. As for `CC(C)CC(=O)Nc1nnc(S(=O)(=O)N2c3ccccc3CC2C)s1` (stereo not given), the survival is inactive: 75%. For `CC(C)c1ccc(Nc2sc(C(=O)c3ccccc3)c(N)c2S(=O)(=O)c2ccccc2)cc1`, the survival was inactive: 70%.

As to `CCc1nc2ccc(C(=O)N3CCN(c4cccc(Cl)c4)CC3)cc2nc1CC`, the survival is inactive: 82%. In the case of `Cc1ccc(N2CCN(C(=O)Cn3ncc4c([nH]c5ccc(C)cc54)c3=O)CC2)c(C)c1`, the survival was inactive: 94%.

`CCc1cccc(NC(=O)C(Cc2ccccc2)NS(=O)(=O)c2cccs2)c1` (stereo not given): the survival is active: 44%. For the compound `CC(=O)c1ccc(Nc2cc(C)nc3nc(Cc4ccccc4)nn23)cc1`, the survival was inactive: 64%. The figure for `CCOc1nc(NCCO)nc(NCCC2=CCCCC2)n1` is inactive: 67%; for `COc1ccc(N(CC(=O)NCCc2ccccc2)S(=O)(=O)c2c(C)nn(C)c2C)cc1` it is inactive: 109%. The figure for `CC(=O)Nc1ccc(Nc2ccc3cc(S(=O)(=O)N4CCCCC4)ccc3n2)cc1` is inactive: 89%; for `O=C(NC1CC(=O)N(c2ccc(Cl)cc2)C1)c1cc2ccccc2o1` (stereo not given) it is active: 52%.

Turning to `CCCc1ccc(OCC(=O)Nc2sc3c(c2C(=O)OCC)CCC(C(C)(C)C)C3)cc1` (stereo not given), the survival is inactive: 125%. With `Nc1cc(=O)nc(SCC(=O)Nc2ccccc2)n1CCc1ccccc1`, the survival was inactive: 85%. Turning to `CCOCCOC(=O)c1ccc2c(c1)N(Cc1ccccc1C#N)C(=O)c1ccccc1S2(=O)=O`, the survival was inactive: 99%. As for `CCN(c1ccccc1)S(=O)(=O)c1ccc(NC(=O)c2nc(S(C)(=O)=O)ncc2Cl)cc1`, the figure is active: -1%; as for `OC(CNCC1CCCO1)Cn1c2ccccc2c2ccccc21` (stereo not given), inactive: 72%; as for `CCOc1ccc(CCNC(=O)CCCn2c(=O)c3cccn3c3cccnc32)cc1`, inactive: 86%. `COc1ccc(C2CCN(C(=O)N(C(C)C)C(C)C)CC2)cc1`: the survival was inactive: 94%. On to `COc1ccc(-c2cc3ccc(O)c(CN4CCN(C)CC4)c3oc2=O)cc1OC`, for which the survival was inactive: 98%. `Cc1ccccc1OCC(=O)Nc1ccc2nc(SCC(=O)N3CCCC3)sc2c1`: the survival was inactive: 52%.

Take `O=C1Cc2cc(S(=O)(=O)Nc3ccc(OC(F)(F)F)cc3)cc3c2N1CCC3`: the survival was inactive: 144%. The figure for `O=C(O)CCn1cnc2sc3c(c2c1=O)CCCC3` is inactive: 105%; for `Cc1ccccc1NC(=O)C1C2CCCCC21` (stereo not given) it is inactive: 83%. Consider `CCOC(=O)c1cc(-c2ccc(OC)c(S(=O)(=O)N3CCN(c4ccccc4)CC3)c2)on1`, for which the survival was inactive: 92%.

Turning to `COc1ccc(S(=O)(=O)c2nnn(-c3cccc(Cl)c3)c2N)cc1`, the survival is inactive: 56%. As to `CCOC(=O)c1c(-c2ccc(OC)c(OC)c2)csc1NC(=O)c1ccccc1F`, the survival was inactive: 73%. For the compound `COc1ccccc1Nc1nc(-c2ccccc2)c(CC(=O)O)s1`, the survival is inactive: 71%. As for `COc1ccc2c(c1)c1c(c(=O)n(-c3cccc(C)c3)c(=O)n1CC(=O)NCCC1=CCCCC1)n2C`, the figure is inactive: 71%. Take `Cc1cccc(CNS(=O)(=O)c2ccc(-c3coc(C)n3)cc2)c1`: the survival was inactive: 99%.

Regarding `Cc1ccc2nc3c(cc(C(=O)NC4CCCC4)c(=N)n3C(C)C)c(=O)n2c1`, the survival was inactive: 72%. As for `O=c1c2cccnc2n(Cc2cccc(F)c2)c(=O)n1Cc1ccc(F)cc1`, the survival is inactive: 118%. For `CCC(Nc1ccc(-c2nc(-c3cccnc3)no2)cc1[N+](=O)[O-])c1ccccc1` (stereo not given), the survival was inactive: 64%. Consider `COc1ccc2[nH]cc(CCNC(=O)Nc3cc(C)cc(C)c3)c2c1`, for which the survival is inactive: 91%. On to `O=C(Nc1ccc(Cl)c(-c2nc3ccccc3o2)c1)c1cccc2c(Cl)cccc12`, for which the survival was inactive: 84%. `COc1ccc(Nc2ccc3cc(S(=O)(=O)N4CCCC4)ccc3n2)cc1OC`: the survival was inactive: 73%. With `Cc1ccc(CSC2=Nc3ccccc3C3=NC(CCC(=O)NCc4cccs4)C(=O)N23)c(C)c1` (stereo not given), the survival was inactive: 76%.
